Data taken from PubChem BioAssay AID686978 (National Center for Advancing Translational Sciences (NCATS), 2013).
About 64,000 (15%) of roughly 420,000 compounds were called active. The shares of active, inactive and inconclusive entries below differ from those in the screen. The call rests on the fitted dose curve; in most records, active means well fitted inhibition curve with a large enough effect; inconclusive means small, poorly fitted or top-dose-only effect; inactive means flat fitted curve, though single readings scatter. No potency is given beside an inconclusive call; the fits are too rough.

Test: qHTS for Inhibitors of human tyrosyl-DNA phosphodiesterase 1 (TDP1): qHTS in cells in absence of CPT; further: nearly all actives have a fitted effect of over 55% in size
Details: DT40 Tdp1-/- hTDP1 cells, no CPT, ATP luminescence, 48 h; activity change, negative = growth inhibition: at 46.2 µM (top of the series) unless noted
Method in brief: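 Growth of hTDP1-complemented DT40 Tdp1-knockout cells is measured by ATP luminescence after at least 48 hr compound exposure at 37 °C, with DMSO substituting for the 20 nM CPT used in the parallel screen.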
On the % scale 0 is the no-effect control and ±100 the full control effect; potency means the concentration at half of the fitted maximal effect; tags describe the fitted curve by direction and shape.

SMILES	activity change, negative = growth inhibition	Potency
CCOc1ccc(CC(=N)C2=C(O)CC(C)(C)CC2=O)cc1OCC	inactive: -19.3%	–
Cc1nn(-c2ccccc2)c(N)c1C1(O)C(=O)N(C)c2ccccc21 (stereo not drawn)	–	inconclusive [inhibitor, single point]
O=C(O)c1cc(S(=O)(=O)Nc2cccc(Oc3ccccc3)c2)ccc1Br	inactive: 7.72%	–
Cc1cc(C)c2oc(=O)cc(CN3CCCCC3)c2c1	inactive: -5.29%	–
CCN1CCCC1CNC(=O)c1cc2cc(F)ccc2[nH]1 (stereo not drawn)	inactive: 17%	–
CCOC(=O)c1ccc(N/C(=N\S(=O)(=O)c2ccccc2C)c2ccccc2)cc1	–	inconclusive [inhibitor, single point]
COC(=O)c1c(-c2ccccc2OC)sc2cc3c(cc12)OCO3	–	inconclusive [inhibitor, single point]
CC(C)c1ccc(/C=N/NC(=O)CN(c2cccc(Cl)c2Cl)S(C)(=O)=O)cc1	–	inconclusive [inhibitor, partial curve, poor fit]
CCOc1ccc(/C=C/c2nc(C#N)c(NC3CCCCC3)o2)cc1	–	inconclusive [inhibitor, single point]
O=C(CCCN1C(=O)/C(=C/c2ccccc2)SC1=S)Nc1ccc(C(=O)O)c(O)c1	inactive: -17.3%	–
Cc1ccc(S(=O)(=O)c2c(C)nn(C(C)(C)C)c2OC(=O)CC(C)C)cc1	–	inconclusive [inhibitor, single point]
Cc1cc(Cl)ccc1NC(=O)CN1CCCC1	inactive: -0.781%	–
CN(Cc1ccccc1)S(=O)(=O)c1ccc(Cl)c(C(=O)NCc2cccnc2)c1	–	inconclusive [inhibitor, single point]
S=C1NCN(Cc2ccccc2)CN1C1CCCCC1	–	inconclusive [inhibitor, single point]
COCCOC(=O)c1c(C)oc2cc(Br)c(OCC(N)=O)cc12	–	inconclusive [inhibitor, single point]
CC1NC(C(=O)O)Cc2c1[nH]c1ccccc21 (stereo not drawn)	inactive: -17.4%	–
NC(=O)NC(=O)COC(=O)c1sc2ccccc2c1Cl	–	inconclusive [inhibitor, single point]
CCCCC(O)(c1ccc(OC)cc1)C(CN1CCOCC1)c1ccccc1 (stereo not drawn)	–	active: 23.1 µM
COCCCN1CC(=O)N2C(c3ccc(C)cc3)c3[nH]c4ccccc4c3C[C@H]2C1=O (stereo partly drawn)	–	inconclusive [inhibitor, single point]
CC12CCCC(CC(=O)O)(C1)NC(=O)C2 (stereo not drawn)	inactive: 6.36%	–
COCCn1c(-c2ccc(OC)cc2)cnc1SCC(=O)Nc1cccc2ccccc12	–	inconclusive [inhibitor, single point]
COc1cccc(-n2nc(C(=O)Nc3ccc4c(c3)OCO4)c3ccccc3c2=O)c1	–	inconclusive [inhibitor, single point]
Cc1cccc(NC(=O)NCC2CCN(c3ccc(S(=O)(=O)N4CCOCC4)cc3)CC2)c1	–	inconclusive [inhibitor, partial curve, poor fit]
O=C(COc1ccccc1F)N1CCN(S(=O)(=O)/C=C/c2ccccc2)CC1	–	inconclusive [inhibitor, single point]

SMILES	activity change, negative = growth inhibition	Potency
CCC(=O)N/N=C(\C)CC(=O)Nc1cc(Cl)ccc1C	inactive: 1.35%	–
COc1cc(C(=O)N2CCN(Cc3ccccc3C(F)(F)F)CC2)cc(OC)c1OC	–	inconclusive [inhibitor, partial curve, poor fit]
O=C(NCCc1c[nH]c2ccccc12)OCCCCOC(=O)NCCc1c[nH]c2ccccc12	–	active: 23.1 µM
CCN(CC)S(=O)(=O)c1ccc(OC)c(NS(=O)(=O)Cc2ccccc2)c1	inactive: -3.45%	–
COc1ccccc1Nc1nc(N)nc(CSc2nnc(C)s2)n1	inactive: -14%	–
N=c1c(C(=O)NC2CCCCC2)cc2c(=O)n3ccccc3nc2n1Cc1cccnc1	inactive: -3.93%	–
COC(=O)c1cn(NC(=O)c2cnccn2)c(=O)c2ccccc12	–	active: 7.31 µM
COc1ccc(NC(=O)c2cccc(S(=O)(=O)Nc3ccc(Br)cc3)c2)cn1	–	active: 23.1 µM
CC(=O)c1cc2c(cc1N/C(=N/S(=O)(=O)c1ccccc1)c1ccc(Cl)cc1)OCO2	–	inactive
O=C(NCCC1=CCCCC1)C1CCN(S(=O)(=O)N2CCCC2)CC1	–	inconclusive [inhibitor, single point]
Cc1nc(N)c(C#N)c(-c2cccnc2)c1C	–	inconclusive [inhibitor, partial curve]
CN1/C(=C/C2CC(=O)N(c3ccc([N+](=O)[O-])cc3)C2=O)C(C)(C)c2ccccc21 (stereo not drawn)	inactive: -27.8%	–
O=C(Nc1cccc(-c2nc3ncccc3o2)c1)c1cc2ccccc2o1	–	active: 23.1 µM
Cc1ccc(S(=O)(=O)NC(=O)c2ccc(-c3ccc(C)c4ccccc34)o2)cc1	–	inconclusive [inhibitor, single point]
O=c1cc(-c2ccccc2)nc2nc(-c3ccco3)[nH]n12	–	inconclusive [inhibitor, single point]
Cc1ccccc1OCCC(=O)OCC(=O)N1c2ccccc2NC(=O)C1(C)C	–	inconclusive [inhibitor, single point]
O=C(/C=C/c1ccc(OCc2ccccc2)cc1)c1cccs1	inactive: 0.876%	–
CC(=O)Nc1ccc(S(=O)(=O)N2CCC(NC(=O)C(Cc3ccc(C)cc3)NC(C)=O)CC2)cc1 (stereo not drawn)	inactive: 2.78%	–
CSc1ccc(S(=O)(=O)NCc2ccccc2C)cc1	inactive: -2.05%	–
COc1ccccc1OCCn1c(C(C)Oc2ccccc2)nc2ccccc21 (stereo not drawn)	–	inconclusive [inhibitor, single point]
O=C(CSc1cccc2cccnc12)N/N=C/c1cccnc1	–	active: 4.11 µM
CC(C)(C)NC(=O)CSc1nnc(C2CC2)n1-c1ccccc1	inactive: -15.2%	–
COc1ccc(-n2c(SCC(=O)Nc3nnc(C)s3)nc3c([nH]c4ccccc43)c2=O)cc1	–	inconclusive [inhibitor, single point]
OC(c1ccccc1)c1nc(-c2cccc(C(F)(F)F)c2)cs1 (stereo not drawn)	–	inconclusive [inhibitor, single point]
